{"source": "patent US20220296690A1", "about": "(Pieris, published 2022)", "binders": {"B1": {"name": "Fc fusion of the Anticalin-based CTLA-4 antagonist, mature processed secreted form (SEQ ID NO: 29) (Fc fusion)", "chain": "QDSTSDLIPAPPLSKVPLQQNFQDNQFQGKWYVVGLAGNRILRQDQHPMLMYATIYELKEDKSYQVTSVISSHKKCLYPIATFVPGSQPGEFTLGNIKSYGDKVSYLVRVVSTNYNQHAMVFFKHADTNYESFSITLYGRTKELTSELKENFIRFSKSLGLPENHIVFPVPIDQCIDGSAWSHPQFEKDPA[human IgG1 Fc with C220P (EU numbers) omitted]", "notes": "Fusion of the Anticalin-based CTLA-4 antagonist to the Fc fragment of a human IgG1 antibody; also called αCTLA-4-Fc"}}, "biological_target": "T1, Recombinant human CTLA-4 (human, UniProt P16410 36-161, limits assumed)", "T1 sequence (looked up)": "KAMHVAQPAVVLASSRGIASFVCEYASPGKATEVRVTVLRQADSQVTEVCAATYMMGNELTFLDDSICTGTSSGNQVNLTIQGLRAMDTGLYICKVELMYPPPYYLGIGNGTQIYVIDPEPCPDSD", "experiment": "ELISA; recombinant human CTLA-4 coated, T cell culture supernatant added, detected with rabbit anti-NGAL polyclonal antibody and goat anti-rabbit IgG-HRP", "procedure": "FIG. 5: Detection of functional T-cell secreted Fc fusion of a CTLA-4 antagonist by ELISA. The supernatant of human peripheral blood T cells, mock-transduced or transduced with pSIN-(NFAT)6-αCTLA-4-Fc and cultured under activatory conditions (cf. Example 3 and FIG. 4) was analyzed for the presence of the functionally active Fc fusion of the CTLA-4 antagonist SEQ ID NO: 29 by ELISA. Recombinant human CTLA-4 was coated on an ELISA Plate as described in Example 3, and culture supernatants of transduced and mock-transduced T cells were added. Plate-bound SEQ ID NO: 29 was detected by primary staining with an anti-NGAL polyclonal rabbit antibody, secondary staining using goat anti rabbit IgG-HRP and addition of a chromogenic HRP substrate as described in Example 3.\nSupernatants were analyzed for the presence of functionally active Anticalin-based CTLA-4 antagonist by ELISA as described in the following: Recombinant human CTLA-4 at a concentration of 5 μg/mL in PBS was added to each well of a 384 well ELISA plate and incubated over night at 4° C. […] Subsequently, rabbit anti-NGAL polyclonal antibody at a concentration of 1 μg/mL in PBS/0.1% (w/v) Tween20/2% (w/v) BSA was added, and bound antibody was detected using goat anti-rabbit IgG-HRP in a dilution of 1:5,000 in PBS/0.1% (w/v) Tween20/2% (w/v) BSA. […]"}
{"binder": "B1", "values": [{"measurement": "binding result", "result": "binds"}]}
